The list shows a part of the results.
Tests used:
Experiment in all cases: glycan array binding signal (z-score within array); higher = stronger binding
Conditions in all cases: glycan notation: IUPAC condensed, linker removed
[1] = biological target: Neu5Ac(a2-6)Gal(b1-4)GlcNAc(b1-3)Gal(b1-4)GlcNAc(b1-3)Gal(b1-4)GlcNAc(b1-2)Man(a1-3)[Neu5Ac(a2-6)Gal(b1-4)GlcNAc(b1-3)Gal(b1-4)GlcNAc(b1-3)Gal(b1-4)GlcNAc(b1-2)Man(a1-6)]GalNAc
Summary of the method: (§1)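 Glycan array binding is given as a within-array Z-score, which can be read as non-binding when negative. The arrays, 3228 of them, came from the Consortium for Functional Glycomics database and were retained only where the protein sequence was available. Z-scores were averaged across arrays of the same protein sequence at different concentrations or buffers and across linkers.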

[2] = biological target: Neu5Ac(a2-6)Gal(b1-4)GlcNAc(b1-3)Gal(b1-4)GlcNAc(b1-3)GalNAc
Summary of the method: as §1

[3] = biological target: Neu5Ac(a2-6)Gal(b1-4)GlcNAc(b1-3)Gal(b1-4)GlcNAc(b1-3)[Neu5Ac(a2-6)Gal(b1-4)GlcNAc(b1-3)Gal(b1-4)GlcNAc(b1-6)]GalNAc
Summary of the method: as §1

[4] = biological target: Neu5Ac(a2-6)Gal(b1-4)GlcNAc(b1-3)Gal(b1-4)GlcNAc(b1-6)[Gal(b1-3)]GalNAc
Summary of the method: as §1

[5] = biological target: Neu5Ac(a2-6)Gal(b1-4)GlcNAc(b1-3)Gal(b1-4)[Fuc(a1-3)]GlcNAc(b1-3)Gal(b1-4)[Fuc(a1-3)]GlcNAc
Summary of the method: as §1

[6] = biological target: Neu5Ac(a2-6)Gal(b1-4)GlcNAc(b1-3)GalNAc
Summary of the method: as §1

[7] = biological target: Neu5Ac(a2-6)Gal(b1-4)GlcNAc(b1-3)[Neu5Ac(a2-6)Gal(b1-4)GlcNAc(b1-6)]GalNAc
Summary of the method: as §1

[8] = biological target: Neu5Ac(a2-6)Gal(b1-4)GlcNAc(b1-6)GalNAc
Summary of the method: as §1

[9] = biological target: Neu5Ac(a2-6)Gal(b1-4)GlcNAc(b1-6)[Gal(b1-3)GlcNAc(b1-3)]Gal(b1-4)Glc
Summary of the method: as §1

[10] = biological target: Neu5Ac(a2-6)Gal(b1-4)GlcNAc(b1-6)[Gal(b1-3)]GalNAc
Summary of the method: as §1

[11] = biological target: Neu5Ac(a2-6)Gal(b1-4)GlcNAc6S
Summary of the method: as §1

Neu5Ac(a2-6)GalNAc = biological target: Neu5Ac(a2-6)GalNAc
Summary of the method: as §1

[12] = biological target: Neu5Ac(a2-6)GalNAc(b1-4)GlcNAc
Summary of the method: as §1

[13] = biological target: Neu5Ac(a2-6)GalNAc(b1-4)GlcNAc6S
Summary of the method: as §1

[14] = biological target: Neu5Ac(a2-6)GlcNAc(b1-4)GlcNAc
Summary of the method: as §1

[15] = biological target: Neu5Ac(a2-6)GlcNAc(b1-4)GlcNAc(b1-4)GlcNAc
Summary of the method: as §1

Neu5Ac(a2-8)Neu5Ac = biological target: Neu5Ac(a2-8)Neu5Ac
Summary of the method: as §1

[16] = biological target: Neu5Ac(a2-8)Neu5Ac(a2-3)Gal(b1-3)GalNAc(b1-4)[Neu5Ac(a2-3)]Gal(b1-4)Glc
Summary of the method: as §1

[17] = biological target: Neu5Ac(a2-8)Neu5Ac(a2-3)Gal(b1-3)GalNAc(b1-4)[Neu5Ac(a2-8)Neu5Ac(a2-3)]Gal(b1-4)Glc
Summary of the method: as §1

[18] = biological target: Neu5Ac(a2-8)Neu5Ac(a2-3)Gal(b1-4)Glc
Summary of the method: as §1

[19] = biological target: Neu5Ac(a2-8)Neu5Ac(a2-3)Gal(b1-4)GlcNAc
Summary of the method: as §1

[20] = biological target: Neu5Ac(a2-8)Neu5Ac(a2-3)[Gal(b1-3)GalNAc(b1-4)]Gal(b1-4)Glc
Summary of the method: as §1

[21] = biological target: Neu5Ac(a2-8)Neu5Ac(a2-3)[GalNAc(b1-4)]Gal(b1-4)Glc
Summary of the method: as §1

[22] = biological target: Neu5Ac(a2-8)Neu5Ac(a2-8)Neu5Ac
Summary of the method: as §1

[23] = biological target: Neu5Ac(a2-8)Neu5Ac(a2-8)Neu5Ac(a2-3)Gal(b1-4)Glc
Summary of the method: as §1

[24] = biological target: Neu5Ac(a2-8)Neu5Ac(a2-8)Neu5Ac(a2-3)[Gal(b1-3)GalNAc(b1-4)]Gal(b1-4)Glc
Summary of the method: as §1

[25] = biological target: Neu5Ac(a2-8)Neu5Ac(a2-8)Neu5Ac(a2-3)[GalNAc(b1-4)]Gal(b1-4)Glc
Summary of the method: as §1

[26] = biological target: Neu5Ac(a2-8)Neu5Ac(a2-8)Neu5Ac(a2-8)Neu5Ac(a2-3)[GalNAc(b1-4)]Gal(b1-4)Glc
Summary of the method: as §1

[27] = biological target: Neu5Ac(a2-8)Neu5Gc(a2-3)Gal(b1-4)GlcNAc
Summary of the method: as §1

[28] = biological target: Neu5Ac(b2-6)Gal(b1-4)GlcNAc
Summary of the method: as §1

Neu5Ac(b2-6)GalNAc = biological target: Neu5Ac(b2-6)GalNAc
Summary of the method: as §1

[29] = biological target: Neu5Ac9Ac(a2-3)Gal(b1-3)GlcNAc
Summary of the method: as §1

[30] = biological target: Neu5Ac9Ac(a2-3)Gal(b1-4)GlcNAc
Summary of the method: as §1

[31] = biological target: Neu5Ac9Ac(a2-6)Gal(b1-4)GlcNAc
Summary of the method: as §1

[32] = biological target: Neu5Gc(a2-3)Gal(b1-3)GlcNAc
Summary of the method: as §1

[33] = biological target: Neu5Gc(a2-3)Gal(b1-3)[Fuc(a1-4)]GlcNAc
Summary of the method: as §1

Neu5Gc(a2-3)Gal(b1-4)Glc = biological target: Neu5Gc(a2-3)Gal(b1-4)Glc
Summary of the method: as §1

[34] = biological target: Neu5Gc(a2-3)Gal(b1-4)GlcNAc
Summary of the method: as §1

[35] = biological target: Neu5Gc(a2-3)Gal(b1-4)GlcNAc(b1-3)Gal(b1-4)GlcNAc(b1-2)Man(a1-3)[Neu5Gc(a2-3)Gal(b1-4)GlcNAc(b1-3)Gal(b1-4)GlcNAc(b1-2)Man(a1-6)]Man(b1-4)GlcNAc(b1-4)GlcNAc
Summary of the method: as §1

[36] = biological target: Neu5Gc(a2-3)Gal(b1-4)[Fuc(a1-3)]GlcNAc
Summary of the method: as §1

[37] = biological target: Neu5Gc(a2-6)Gal(b1-4)GlcNAc
Summary of the method: as §1

Neu5Gc(a2-6)GalNAc = biological target: Neu5Gc(a2-6)GalNAc
Summary of the method: as §1

[38] = biological target: Neu5Gc(a2-8)Neu5Ac(a2-3)Gal(b1-4)GlcNAc
Summary of the method: as §1

[39] = biological target: Neu5Gc(a2-8)Neu5Gc(a2-3)Gal(b1-4)GlcNAc
Summary of the method: as §1

[40] = biological target: Neu5Gc(a2-8)Neu5Gc(a2-3)Gal(b1-4)GlcNAc(b1-3)Gal(b1-4)GlcNAc
Summary of the method: as §1

[41] = biological target: Neu5Gc(a2-8)Neu5Gc(a2-6)Gal(b1-4)GlcNAc
Summary of the method: as §1

[42] = biological target: Neu5Gc(b2-6)Gal(b1-4)GlcNAc
Summary of the method: as §1

B1: Siglec-E (Mus musculus), Q91Y57 (protein)
chain: MLLLLLLLLLWGIKGVEGQNPQEVFTLNVERKVVVQEGLCVLVPCNFSYLKKRLTDWTDSDPVHGFWYREGTDRRKDSIVATNNPIRKAVKETRNRFFLLGDPWRNDCSLNIREIRKKDAGLYFFRLERGKTKYNYMWDKMTLVVTALTNTPQILLPETLEAGHPSNLTCSVPWDCGWTAPPIFSWTGTSVSFLSTNTTGSSVLTITPQPQDHGTNLTCQVTLPGTNVSTRMTTRLNVSYAPKNLTVTIYQGADSVSTILKNGSSLPISEGQSLRLICSTDSYPPANLSWSWDNLTLCPSKLSKPGLLELFPVHLKHGGVYTCQAQHALGSQHISLSLSPQSSATLSEMMMGTFVGSGVTALLFLSVCILLLAVRSYRRKPARPAVVAPHPDALKVSVSQNPLVESQADDSSEPLPSILEAAPSSTEEEIHYATLSFHEMKPMNLWGQQDTTTEYSEIKFPQRTAWP
- glycan array binding signal (z-score) [1]: -0.29
- glycan array binding signal (z-score) [2]: -0.338
- glycan array binding signal (z-score) [3]: -0.39
- glycan array binding signal (z-score) [4]: 0.96
- glycan array binding signal (z-score) [5]: -0.23
- glycan array binding signal (z-score) [6]: 1.45
- glycan array binding signal (z-score) [7]: -0.052
- glycan array binding signal (z-score) [8]: -0.102
- glycan array binding signal (z-score) [9]: -0.217
- glycan array binding signal (z-score) [10]: -0.369
- glycan array binding signal (z-score) [11]: 0.569
- glycan array binding signal (z-score) (Neu5Ac(a2-6)GalNAc): -0.32
- glycan array binding signal (z-score) [12]: -0.573
- glycan array binding signal (z-score) [13]: 0.088
- glycan array binding signal (z-score) [14]: -0.619
- glycan array binding signal (z-score) [15]: -0.827
- glycan array binding signal (z-score) (Neu5Ac(a2-8)Neu5Ac): -0.266
- glycan array binding signal (z-score) [16]: -0.387
- glycan array binding signal (z-score) [17]: 0.342
- glycan array binding signal (z-score) [18]: -0.267
- glycan array binding signal (z-score) [19]: -0.57
- glycan array binding signal (z-score) [20]: 0.53
- glycan array binding signal (z-score) [21]: -0.369
- glycan array binding signal (z-score) [22]: -0.511
- glycan array binding signal (z-score) [23]: -0.105
- glycan array binding signal (z-score) [24]: -0.374
- glycan array binding signal (z-score) [25]: -0.43
- glycan array binding signal (z-score) [26]: -0.003
- glycan array binding signal (z-score) [27]: -0.419
- glycan array binding signal (z-score) [28]: -0.509
- glycan array binding signal (z-score) (Neu5Ac(b2-6)GalNAc): -0.402
- glycan array binding signal (z-score) [29]: 0.055
- glycan array binding signal (z-score) [30]: -0.311
- glycan array binding signal (z-score) [31]: -0.429
- glycan array binding signal (z-score) [32]: -0.188
- glycan array binding signal (z-score) [33]: 0.48
- glycan array binding signal (z-score) (Neu5Gc(a2-3)Gal(b1-4)Glc): 0.16
- glycan array binding signal (z-score) [34]: -0.227
- glycan array binding signal (z-score) [35]: -0.44
- glycan array binding signal (z-score) [36]: -0.451
- glycan array binding signal (z-score) [37]: 0.284
- glycan array binding signal (z-score) (Neu5Gc(a2-6)GalNAc): 0.162
- glycan array binding signal (z-score) [38]: -0.472
- glycan array binding signal (z-score) [39]: -0.578
- glycan array binding signal (z-score) [40]: -0.554
- glycan array binding signal (z-score) [41]: -0.692
- glycan array binding signal (z-score) [42]: 0.02

Source: the supplement of paper PMC8728848
